According to US20260199274A1 (priority 2022, published 2026):

Legend:
[1] = test system: A/Scotland/20/74 (H3N2) virus; assay: IAV-infected NF-kB transgenic Balb/c mice: bioluminescence, histopathology, survival, weight
[2] = test system: A/Scotland/20/74 (H3N2) virus; assay: Survival of IAV-infected C57Bl/6 mice, comparison with oseltamivir; settings: for efficacy when administered at a distance from the infection: administered 4 days post infection; for body weight of surviving mice: after 15 days; for effect on survival: treatment 2 days post-infection, C57Bl/6, CA 30 mg/kg, Osel 20 mg/kg intranasal
[3] = test system: A/Scotland/20/74 (H3N2) virus; settings: IAV 100 pfu, 30 mg/kg CA intranasally 20 minutes post-infection
[4] = test system: A/Scotland/20/74 (H3N2) virus; assay: RT-qPCR of M1 viral mRNA in BEAS-2B cells; settings: 6 h pi
[5] = test system: A/Scotland/20/74 (H3N2) virus
[6] = test system: A/Scotland/20/74 (H3N2) virus; assay: IAV-infected C57Bl/6 mice: viral load, BAL mediators, immune cells
[7] = test system: A/Scotland/20/74 (H3N2) virus; remark: listed apart in the source
[8] = test system: A/Scotland/20/74 (H3N2) virus; remark: listed apart in the source
[9] = test system: A/Scotland/20/74 (H3N2) virus; remark: listed apart in the source
[10] = 0.6 mg CA 2 days pi, histopathology at 8 days pi
[11] = Balb/c, IAV 300 PFU, 0.6 mg CA intranasally 2 days pi
[12] = treated at 20 minutes post-infection
[13] = treated at 20 minutes post-infection, intranasal, CA 30 mg/kg, Osel 20 mg/kg
[14] = 0.6 mg CA 2 days post-infection, day 8 p.i.

SMILES: O=C(O)/C=C(/CC(=O)O)C(=O)O [cis-aconitate]
- IAV-triggered inflammation (NF-kB activity, bioluminescence) ([1]; 0.6 mg CA 2 days pi, 8 days post-infection): drastically reduced
- IAV-induced alveolar wall thickening, hyaline membrane formation, and epithelial necrosis [1, 10]: significant reduction
- inflammation score [1, 10]: reduced
- lung congestion [1, 10]: diminished
- survival rate [1, 11]: 90%
- weight loss of IAV-infected animals [1, 11]: mitigating weight loss
- effect on survival ([1]; treatment 2 days post-infection, Balb/c mice): persisted
- efficacy when administered at a distance from the infection [2]: effective
- body weight of surviving mice [2, 12]: returned to their original weight
- survival rate [2, 13]: 80%
- survival rate ([2]; treated day 4 and day 5 post-infection, 30 mg/kg intranasal): 50%
- effect on survival [2]: persisted
- survival patterns in CAD−/− mice [3]: closely mirrored those in wild-type mice
- relative expression of viral matrix 1 (M1) mRNA [4]: tenfold
- antiviral and anti-inflammatory properties with CAD siRNA [5]: conserved
- relative expression of 50 mediators in BAL ([6]; 0.6 mg CA 2 days post-infection, day 4 p.i.): markedly reduced
- alveolar macrophage numbers [6, 14]: comparable to non-infected conditions
- decrease of neutrophil recruitment [6, 14]: two-thirds
- activation of NKT, DC, alveolar macrophages, and T cells ([6]; 0.6 mg CA 2 days post-infection, day 8 p.i., versus infected non-treated mice): significantly lower
- reduction in viral load in lung tissues ([6]; 0.6 mg CA intranasally 2 days post-infection, day 4 p.i.): 1 log
- viral protein expression of NP, NS1, and PA [7]: drastically decreases
- NA activity [8]: significantly decreased
- reduction of NA activity in cell supernatants [9]: 60 fold

SMILES: C=C(CC(=O)O)C(=O)O [itaconate, reference compound]
- reduction of NA activity in cell supernatants [9]: 4.8 fold

SMILES: CCOC(=O)C1=C[C@@H](OC(CC)CC)[C@H](NC(C)=O)[C@@H](N)C1 [oseltamivir, reference compound]
- efficacy when administered at a distance from the infection [2]: ineffective
- body weight of surviving mice [2, 12]: returned to their original weight
- survival rate [2, 13]: 90%
- effect on survival [2]: nullified
